Data: the supplement of paper PMC8728848
The other results are listed elsewhere or left out.

Experiments:
Test in all cases: glycan array binding signal (z-score within array); higher = stronger binding
Conditions in all cases: glycan notation: IUPAC condensed, linker removed
[1] = molecular target: Gal(b1-3)GlcNAc(b1-3)Gal(b1-4)Glc
Method in brief: (§1)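 Arrays were curated from the Consortium for Functional Glycomics database, 3228 in total, and kept only where the protein sequence was available. Binding is expressed as a within-array Z-score. This score was averaged across arrays of the same protein sequence at different concentrations or buffers and across linkers, and negative values can be read as non-binding.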

[2] = molecular target: Gal(b1-3)GlcNAc(b1-3)Gal(b1-4)GlcNAc
Method in brief: as §1

[3] = molecular target: Gal(b1-3)[Fuc(a1-4)]GlcNAc
Method in brief: as §1

[4] = molecular target: Gal(b1-3)[Fuc(a1-4)]GlcNAc(b1-3)Gal(b1-3)[Fuc(a1-4)]GlcNAc
Method in brief: as §1

[5] = molecular target: Gal(b1-3)[Fuc(a1-4)]GlcNAc(b1-3)Gal(b1-4)GlcNAc
Method in brief: as §1

[6] = molecular target: Gal(b1-3)[Fuc(a1-4)]GlcNAc(b1-3)Gal(b1-4)[Fuc(a1-3)]GlcNAc
Method in brief: as §1

[7] = molecular target: Gal(b1-3)[GlcNAc(b1-6)]GalNAc
Method in brief: as §1

[8] = molecular target: Gal(b1-3)[Neu5Ac(a2-6)]GalNAc
Method in brief: as §1

[9] = molecular target: Gal(b1-3)[Neu5Ac(a2-6)]GlcNAc(b1-6)Gal(b1-4)Glc
Method in brief: as §1

[10] = molecular target: Gal(b1-3)[Neu5Ac(b2-6)]GalNAc
Method in brief: as §1

[11] = molecular target: Gal(b1-4)GalNAc(a1-3)[Fuc(a1-2)]Gal(b1-4)GlcNAc
Method in brief: as §1

[12] = molecular target: Gal(b1-4)GalNAc(b1-3)[Fuc(a1-2)]Gal(b1-4)GlcNAc
Method in brief: as §1

Gal(b1-4)Glc = molecular target: Gal(b1-4)Glc
Method in brief: as §1

Gal(b1-4)Glc6S = molecular target: Gal(b1-4)Glc6S
Method in brief: as §1

Gal(b1-4)GlcNAc = molecular target: Gal(b1-4)GlcNAc
Method in brief: as §1

[13] = molecular target: Gal(b1-4)GlcNAc(b1-2)Man(a1-3)[Gal(b1-4)GlcNAc(b1-2)Man(a1-6)]Man(b1-4)GlcNAc(b1-4)GlcNAc
Method in brief: as §1

[14] = molecular target: Gal(b1-4)GlcNAc(b1-3)Gal(b1-3)GlcNAc
Method in brief: as §1

[15] = molecular target: Gal(b1-4)GlcNAc(b1-3)Gal(b1-4)Glc
Method in brief: as §1

[16] = molecular target: Gal(b1-4)GlcNAc(b1-3)Gal(b1-4)GlcNAc
Method in brief: as §1

[17] = molecular target: Gal(b1-4)GlcNAc(b1-3)Gal(b1-4)GlcNAc(b1-3)Gal(b1-4)GlcNAc
Method in brief: as §1

[18] = molecular target: Gal(b1-4)GlcNAc(b1-3)Gal(b1-4)[Fuc(a1-3)]GlcNAc(b1-3)Gal(b1-4)[Fuc(a1-3)]GlcNAc
Method in brief: as §1

[19] = molecular target: Gal(b1-4)GlcNAc(b1-3)GalNAc
Method in brief: as §1

[20] = molecular target: Gal(b1-4)GlcNAc(b1-3)[Gal(b1-4)GlcNAc(b1-6)]GalNAc
Method in brief: as §1

[21] = molecular target: Gal(b1-4)GlcNAc(b1-6)Gal(b1-4)GlcNAc(b1-6)GalNAc
Method in brief: as §1

[22] = molecular target: Gal(b1-4)GlcNAc(b1-6)GalNAc
Method in brief: as §1

[23] = molecular target: Gal(b1-4)GlcNAc(b1-6)[Gal(b1-3)]GalNAc
Method in brief: as §1

Gal3S(b1-3)GalNAc = molecular target: Gal3S(b1-3)GalNAc
Method in brief: as §1

Gal3S(b1-3)GlcNAc = molecular target: Gal3S(b1-3)GlcNAc
Method in brief: as §1

[24] = molecular target: Gal3S(b1-3)[Fuc(a1-4)]GlcNAc
Method in brief: as §1

Gal3S(b1-4)Glc = molecular target: Gal3S(b1-4)Glc
Method in brief: as §1

Gal3S(b1-4)Glc6S = molecular target: Gal3S(b1-4)Glc6S
Method in brief: as §1

Gal3S(b1-4)GlcNAc = molecular target: Gal3S(b1-4)GlcNAc
Method in brief: as §1

Gal3S(b1-4)GlcNAc6S = molecular target: Gal3S(b1-4)GlcNAc6S
Method in brief: as §1

[25] = molecular target: Gal3S(b1-4)[Fuc(a1-3)]Glc
Method in brief: as §1

Gal3S6S(b1-4)GlcNAc = molecular target: Gal3S6S(b1-4)GlcNAc
Method in brief: as §1

Gal3S6S(b1-4)GlcNAc6S = molecular target: Gal3S6S(b1-4)GlcNAc6S
Method in brief: as §1

Gal4S(b1-4)GlcNAc = molecular target: Gal4S(b1-4)GlcNAc
Method in brief: as §1

Gal4S6S(b1-4)GlcNAc = molecular target: Gal4S6S(b1-4)GlcNAc
Method in brief: as §1

B1: Mindin (Homo sapiens), Q9BUD6 (protein)
chain: MENPSPAAALGKALCALLLATLGAAGQPLGGESICSARALAKYSITFTGKWSQTAFPKQYPLFRPPAQWSSLLGAAHSSDYSMWRKNQYVSNGLRDFAERGEAWALMKEIEAAGEALQSVHEVFSAPAVPSGTGQTSAELEVQRRHSLVSFVVRIVPSPDWFVGVDSLDLCDGDRWREQAALDLYPYDAGTDSGFTFSSPNFATIPQDTVTEITSSSPSHPANSFYYPRLKALPPIARVTLVRLRQSPRAFIPPAPVLPSRDNEIVDSASVPETPLDCEVSLWSSWGLCGGHCGRLGTKSRTRYVRVQPANNGSPCPELEEEAECVPDNCV
glycan array binding signal (z-score) [1]: -0.056 | glycan array binding signal (z-score) [2]: 2.01 | glycan array binding signal (z-score) [3]: -0.309 | glycan array binding signal (z-score) [4]: -0.326 | glycan array binding signal (z-score) [5]: 1.28 | glycan array binding signal (z-score) [6]: -0.156 | glycan array binding signal (z-score) [7]: -0.233 | glycan array binding signal (z-score) [8]: -0.262 | glycan array binding signal (z-score) [9]: 0.95 | glycan array binding signal (z-score) [10]: -0.189 | glycan array binding signal (z-score) [11]: 0.429 | glycan array binding signal (z-score) [12]: -0.171 | glycan array binding signal (z-score) (Gal(b1-4)Glc): -0.2 | glycan array binding signal (z-score) (Gal(b1-4)Glc6S): -0.055 | glycan array binding signal (z-score) (Gal(b1-4)GlcNAc): 0.321 | glycan array binding signal (z-score) [13]: 1.27 | glycan array binding signal (z-score) [14]: -0.378 | glycan array binding signal (z-score) [15]: 0.918 | glycan array binding signal (z-score) [16]: 0.322 | glycan array binding signal (z-score) [17]: 0.792 | glycan array binding signal (z-score) [18]: 0.429 | glycan array binding signal (z-score) [19]: 0.959 | glycan array binding signal (z-score) [20]: 2.02 | glycan array binding signal (z-score) [21]: -0.238 | glycan array binding signal (z-score) [22]: 1.34 | glycan array binding signal (z-score) [23]: 1.01 | glycan array binding signal (z-score) (Gal3S(b1-3)GalNAc): -0.146 | glycan array binding signal (z-score) (Gal3S(b1-3)GlcNAc): -0.188 | glycan array binding signal (z-score) [24]: -0.209 | glycan array binding signal (z-score) (Gal3S(b1-4)Glc): 0.224 | glycan array binding signal (z-score) (Gal3S(b1-4)Glc6S): -0.148 | glycan array binding signal (z-score) (Gal3S(b1-4)GlcNAc): -0.198 | glycan array binding signal (z-score) (Gal3S(b1-4)GlcNAc6S): 0.031 | glycan array binding signal (z-score) [25]: -0.28 | glycan array binding signal (z-score) (Gal3S6S(b1-4)GlcNAc): -0.241 | glycan array binding signal (z-score) (Gal3S6S(b1-4)GlcNAc6S): -0.23 | glycan array binding signal (z-score) (Gal4S(b1-4)GlcNAc): -0.072 | glycan array binding signal (z-score) (Gal4S6S(b1-4)GlcNAc): 0.061
